In all, about 360,000 compounds went through this assay and about 7,500 (2.1%) were called active. Inconclusive results, whose numbers are uncertain, are shown with a selection of clear calls. Calls follow the shape of the dose curve; as a rule, active = well fitted cell-killing curve with a large enough effect; inconclusive = small, poorly fitted or top-dose-only effect, or effect the other way, or another doubt; inactive = no such curve, though single readings can be large or run the other way. No potency is given beside an inconclusive call; the fits are too rough.
test: qHTS for induction of synthetic lethality in tumor cells producing 2HG: qHTS for the HT-1080-IDH1KD cell line; settings: HT-1080 IDH1 knockdown viability, ATP luminescence, 48 h; activity, negative = toxicity: at 46.1 µM (top of the series) unless noted;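 as to activity, negative = toxicity: 0% = DMSO wells and -100% = cell-free medium wells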
Outline: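 Cytotoxicity counter-line: IDH1KD HT-1080, 48 h, CellTiter-Glo. Curves classed by r2, magnitude and activity.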
Potency is read from the fitted curve at half-maximal effect; tags tell the direction and shape of the fitted curve.

SMILES | Potency | activity, negative = toxicity
CN(C)S(=O)(=O)c1ccc(-c2csc(N/N=C/c3ccc(O)cc3)n2)cc1 | active: 4.11 µM | 
CCN1CCN(c2cc(C)c3cc(NC(=O)c4cc(OC)cc(OC)c4)ccc3n2)CC1 | inconclusive [cytotoxic, single point] | 
CCn1c(=O)c2ccccc2n(Cc2ccccc2C)c1=O | inactive | 
COC(=O)C1=C(C)N(Cc2ccccc2)C(=NCc2cccc(C(F)(F)F)c2)N[C@H]1c1cccc(C(F)(F)F)c1 | inconclusive [cytotoxic, single point] | 
COc1cc2c(cc1OC)C(c1ccc([N+](=O)[O-])cc1)N(C(C)=O)CC2 (stereo not drawn) | inconclusive [cytotoxic, partial curve] | 
Cc1cc(Br)cn2c(Cc3ccsc3)c(-c3ccc(Cl)cc3)nc12 | inconclusive [cytotoxic, single point] | 
CC(=O)c1cc2c(cc1N/C(=N/S(=O)(=O)c1ccc(C)cc1)c1ccc(Cl)cc1)OCO2 | inactive | 
CC(=O)c1c(O)cc(O)cc1O | inactive | 
CC(C)(C)c1ccc(CC(=O)N2CCC2(C)C(=O)Nc2ccc(F)cc2F)cc1 (stereo not drawn) | inconclusive [cytotoxic, single point] | 
O=C(N/N=C/c1cc(O)ccc1Br)c1cccnc1 | inconclusive [cytotoxic, full curve] | 
CCNC(=O)C1(C)CCCN(C(=O)c2cccnc2Oc2ccccc2)C1 (stereo not drawn) | inactive | 
CN(C)CCC(=O)c1ccc(Cl)cc1 | inactive | 
Cc1ccc(NS(=O)(=O)c2cc(NC(=O)c3ccc4c(c3)NC(=O)CS4)ccc2Cl)c(C)c1 | inconclusive [cytotoxic, single point] | 
COc1cc(OC)nc(Nc2nc(C(N)c3ccccc3Cl)cs2)n1 (stereo not drawn) | inconclusive [cytotoxic, partial curve, poor fit] | 
CCOc1ccc2nc(N(CCCN(C)C)C(=O)c3ccc4c(c3)CCCC4)sc2c1 | inconclusive [cytotoxic, single point] | 
Cc1occc1-c1nnc(SCC(=O)O)n1-c1ccccc1 | inactive | 
COc1ccccc1-c1cc(C(F)(F)F)nc(S(=O)(=O)CCCC(=O)O)n1 | active: 8.91 µM | 
CC1(C(=O)NCc2ccccc2)Cc2c(-c3cccc(C(F)(F)F)c3)ccnc2O1 (stereo not drawn) | active: 3.66 µM | 
CC1CCC(NC(=O)C2CCN(c3nc4ccccc4s3)CC2)CC1 (stereo not drawn) | inactive | 
CN1CCN(c2ccc(CNC(=O)c3ccc(-c4ccnn4C)c4ccoc34)cc2)CC1 | inactive | 
O=C(COc1ccc(Cl)cc1)Nc1nnc(-c2ccc3c(c2)CCCC3)o1 | inactive | 
Cc1cc(C)c(NC(=O)CSc2nnc(SCC(=O)Nc3c(C)cc(C)cc3C)n2N)c(C)c1 | inactive | 
CCCCCc1c(C)nc(Nc2ccccc2)[nH]c1=O | inactive | 
Cc1nc2ccc(Cc3ccc4nc(C)[nH]c4c3)cc2[nH]1 | inactive | 

SMILES | Potency | activity, negative = toxicity
COc1ccc(N2CCN(C(=O)c3ccc(NS(=O)(=O)c4ccc(F)c(F)c4)cc3)CC2)cc1 | inactive | 
O=S(=O)(c1ccccc1)N(CC(O)Cn1c2ccccc2c2ccccc21)c1ccccc1 (stereo not drawn) | inconclusive [cytotoxic, single point] | 
CCC(C)NCCC(=O)Nc1ccc(Cl)c(S(=O)(=O)Nc2ccc(Cl)cc2)c1 (stereo not drawn) | active: 14.6 µM | 
CCOc1ccc(-c2nnc(Nc3ccc(OC)c(C(=O)N4CCCCC4)c3)c3ccccc23)cc1 | inconclusive [cytotoxic, single point] | 
Cc1ccc2nc(-c3ccccc3)c(Cc3cccc(Cl)c3)n2c1 | inconclusive [cytotoxic, partial curve] | 
O=C(NCCNS(=O)(=O)c1ccc(Cl)cc1)c1cc(OCC(F)(F)F)ccc1OCC(F)(F)F | inconclusive [cytotoxic, partial curve] | 
Cc1ccccc1-c1noc(N)c1C#N | active: 10 µM | 
COc1ccc(-c2nc(NC(=O)C3CC(=O)N(Cc4ccco4)C3)sc2C)cc1 (stereo not drawn) | inactive | 
CC(O)CNc1nc2ccccc2n1CC(=O)NC12CC3CC(CC(C3)C1)C2 (stereo not drawn) |  | inconclusive: -33.2% [cytotoxic]
COc1ccc(CN2CCN(CC3CC3)CC2CCO)c(C)c1C (stereo not drawn) | inactive | 
Cc1cccc(-c2cc3nc4c(c(NCc5ccco5)n3n2)CCCC4)c1 | inconclusive [cytotoxic, single point] | 
CCOc1cccc(/C=N/NC(=O)c2cccnc2)c1O | active: 5.17 µM | 
CCN(C(=O)c1cnc(NC(C)C)cc1C(F)(F)F)c1ccc(Cl)cc1Cl | inconclusive [cytotoxic, single point] | 
O=C(CCCC(=O)Nc1cccc(Br)c1)N/N=C/c1cc([N+](=O)[O-])ccc1O | inconclusive [cytotoxic, partial curve] | 
O=C1CC(c2ccccc2)CC(O)=C1C=NCCN1CCN(C(=S)Nc2cccc(Cl)c2)CC1 (stereo not drawn) | inconclusive [cytotoxic, single point] | 
Cc1ccc(Cl)cc1N1CCN(C(=O)CN(C2CCCCC2)S(C)(=O)=O)CC1 | active: 20.6 µM | 
COc1ccc(C2=CC(c3ccc(C)cc3)n3nnnc3N2)cc1 (stereo not drawn) | inconclusive [cytotoxic, single point] | 
CCOC(=O)c1[nH]c(C)c(C(=O)Nc2ccccc2C)c1C | active: 2.31 µM | 
COc1ccc([N+](=O)[O-])cc1Nc1c2ccccc2nc2ccccc12 | active: 5.17 µM | 
COc1ccc(NC(=O)CSCc2cc(=O)n3c(C)csc3n2)cc1 | inactive | 
O=C(NCCC1=CCCCC1)Nc1ccc2nsnc2c1 | inconclusive [cytotoxic, single point] | 
O=C1c2[nH]nc(-c3ccccc3O)c2C(c2cccc(Cl)c2)N1CC1CCCO1 (stereo not drawn) | inconclusive [cytotoxic, partial curve] | 
O=C(Nc1ccccc1)Nc1cccc2nsnc12 | inconclusive [cytotoxic, single point] | 
CN(C)CCOCCOc1ccc(Cl)cc1Br |  | inconclusive: -30.2% [cytotoxic]

— PubChem BioAssay AID686971 (National Center for Advancing Translational Sciences (NCATS), 2013)
